Source: PMC4336329 (PLoS ONE, 2015)
Hit rate of the full screen: of about 310,000 compounds, about 14,000 (4.5%) showed an effect of 50% or more. Effects have a minus sign here. The list shows a part of the results.

Target: human ether-à-go-go-related gene (hERG) potassium channel (human, UniProt Q12809)
Test: primary screen, population patch clamp on CHO cells stably expressing hERG
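Note: peak tail current of the secondary pulse compared with the same well before compound.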

human ether-à-go-go-related gene (hERG) potassium channel, sequence (Q12809 whole entry, looked up): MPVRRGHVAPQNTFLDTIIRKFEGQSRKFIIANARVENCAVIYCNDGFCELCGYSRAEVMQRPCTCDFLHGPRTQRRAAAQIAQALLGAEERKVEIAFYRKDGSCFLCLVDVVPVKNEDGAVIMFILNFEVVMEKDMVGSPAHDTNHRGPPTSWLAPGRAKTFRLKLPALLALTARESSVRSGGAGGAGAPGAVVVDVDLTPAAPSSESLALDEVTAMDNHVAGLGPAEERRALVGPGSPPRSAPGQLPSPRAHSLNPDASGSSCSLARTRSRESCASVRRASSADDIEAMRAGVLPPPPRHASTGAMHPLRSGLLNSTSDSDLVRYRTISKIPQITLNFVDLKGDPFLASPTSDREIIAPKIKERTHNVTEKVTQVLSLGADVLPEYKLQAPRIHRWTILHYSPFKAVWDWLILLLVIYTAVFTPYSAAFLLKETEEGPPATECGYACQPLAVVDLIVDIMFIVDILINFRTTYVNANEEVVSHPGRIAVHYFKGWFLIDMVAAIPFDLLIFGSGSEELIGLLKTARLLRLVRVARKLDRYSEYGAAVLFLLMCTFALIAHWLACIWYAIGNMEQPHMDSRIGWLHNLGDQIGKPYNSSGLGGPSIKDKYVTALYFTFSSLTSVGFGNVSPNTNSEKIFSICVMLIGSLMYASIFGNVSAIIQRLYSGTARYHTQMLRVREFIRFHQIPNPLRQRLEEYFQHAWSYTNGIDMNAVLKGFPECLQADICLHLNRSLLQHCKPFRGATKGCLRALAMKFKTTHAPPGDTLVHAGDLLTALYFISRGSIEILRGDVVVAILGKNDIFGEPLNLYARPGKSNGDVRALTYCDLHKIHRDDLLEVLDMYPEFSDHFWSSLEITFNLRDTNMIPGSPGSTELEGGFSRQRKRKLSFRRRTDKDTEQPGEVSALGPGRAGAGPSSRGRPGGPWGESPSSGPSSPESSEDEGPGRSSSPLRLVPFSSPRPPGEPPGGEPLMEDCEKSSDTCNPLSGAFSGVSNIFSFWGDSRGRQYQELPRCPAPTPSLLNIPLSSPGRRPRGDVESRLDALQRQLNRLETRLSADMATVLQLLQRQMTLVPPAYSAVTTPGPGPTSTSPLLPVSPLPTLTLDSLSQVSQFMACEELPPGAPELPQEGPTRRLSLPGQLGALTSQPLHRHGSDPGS

Row | Compound | hERG current change (%, negative = inhibition) at 10uM [%]
1 | COc1ccc(NC(=O)Cc2c(Cl)cccc2Cl)cn1 | 8.15
2 | CCC(Cc1ccccc1)NC(=O)CSc1ccsc1[N+](=O)[O-] (centres unmarked) | 7.03
3 | CCN(CC)CCCN1C(=O)C(=O)/C(=C(/O)c2ccc3c(c2)OCCO3)C1c1ccco1 (centres unmarked) | -6.06
4 | CN(Cc1ccccc1)CC(O)COc1ccc(CNCCOc2cccnc2)cc1 (centres unmarked) | 5.79
5 | O=C(c1ccco1)N1CCN(c2ncccn2)CC1 | -18.2
6 | O=C(Nc1ccc2c(c1)OCCO2)Nc1ccc2c(c1)OCO2 | 21.4
7 | CC(OC(=O)c1cccnc1Cl)C(=O)Nc1ccc(S(N)(=O)=O)cc1 (centres unmarked) | 44.5
8 | CCOC(=O)C1CCN(C(=O)/C=C/c2ccc3c(c2)OCO3)CC1 | 15
9 | C[C@H]1CC[C@@]2(O[C@@H](CCO)C[C@H](O)[C@H]2O)O1 | 9.6
10 | Cc1ccc(C(=O)NC(=S)Nc2ccc(NC(=O)c3cccc(Cl)c3)cc2)cc1 | 11.8
11 | COc1ccc(-c2cc3c(=O)n(CC(=O)NCCN4CCCC4)nc(C)n3n2)cc1 | -30.2
12 | CCOC(=O)N1CCN(C(=O)CSc2nnc(Cc3cccn3C)n2CCc2ccccc2)CC1 | 4.47
13 | O=C(O)c1ccc(NS(=O)(=O)c2cccc(C(=O)Nc3cccc(C(=O)O)c3)c2)cc1 | 11.1
14 | COc1ccc(CCN=C(NS(=O)(=O)c2ccc(Cl)cc2)c2ccccc2)cc1 | -37.5
15 | O=C(c1cc(COc2ccc3ncccc3c2)on1)N1CCCCCC1 | -7.67
16 | Cc1noc(C)c1C(=O)Nc1cccnc1 | 12.3
17 | COc1ccc(C2NC(=O)c3sc4nc(C)c(C(C)=O)c(-c5ccc(Cl)cc5)c4c3N2)cc1 (centres unmarked) | 5.17
18 | Cc1ccc(C(=O)NC(=S)Nc2ccc(S(=O)(=O)N(C)c3ccccc3)cc2)cc1 | 22.6
19 | O=C(Nc1ccc(N2CCOCC2)cc1)C1CCN(S(=O)(=O)c2ccc3c(c2)OCCO3)CC1 | 9.77
20 | COC(=O)C(Cc1ccc(O)cc1)NC(=O)c1ccccc1OC (centres unmarked) | -4.83
21 | CCOC(=O)[C@@H]1[C@H]2COc3ccccc3[C@@H]2N2C(=O)N(c3cccc(F)c3)C(=O)[C@]12C | -21.5
22 | CCCCCN(C(=O)NC(=O)NCCCC)S(C)(=O)=O | -12.5
23 | O=C(NC[P+](=O)O)OCc1ccccc1 | 11.6

Row | Compound | hERG current change (%, negative = inhibition) at 10uM [%]
24 | Cc1cccc(C)c1NC(=O)C(NC(=O)c1ccccn1)c1ccccc1[N+](=O)[O-] (centres unmarked) | -3.43
25 | CCn1c(=O)c(=O)[nH]c2cc(C(=O)NC3CCCc4ccccc43)ccc21 (centres unmarked) | 1.54
26 | S=c1[nH]nc(-c2ccncc2)n1/N=C/C=C/c1ccco1 | 5.67
27 | COc1ccc(OC)c(/C=C2\SC(N3CCCC(C)C3)=NC2=O)c1 (centres unmarked) | -17
28 | CCC(C)NC(=O)C1CCC(=O)N1CCc1ccccc1 (centres unmarked) | 4.88
29 | CCOC(=O)CSc1nnnn1-c1cc(OC)ccc1OC | 2.31
30 | CCSC1=C(C#N)C2(CCCCC2)C2=C(CC(C)(C)CC2=O)N1 | 13
31 | COc1ccc(-c2cnnn2-c2ccc(NC(=O)c3ccco3)cc2)cc1OC | -9.9
32 | Cc1ccc(NC(=O)CN2C(=O)NC3(CCc4ccccc43)C2=O)cc1S(=O)(=O)N1CCCCC1 (centres unmarked) | 4.56
33 | COC(=O)c1sc(N)c(C(=O)OC)c1COC(=O)c1c(C)noc1C | -3.57
34 | COc1cc(C2NC(=O)NC(C)=C2C(=O)OCC2CCCO2)ccc1O (centres unmarked) | -3.63
35 | Fc1cccc(CN2CCC(Cc3ccccc3)CC2)c1 | 5.12
36 | COCCn1c(SCC#N)nnc1-c1ccc([N+](=O)[O-])cc1 | -30.8
37 | CCCSc1ncnc2sc(C)c(C)c12 | 16.5
38 | N#Cc1cccc(NC(=O)CC2CCCC2)c1 | 9.05
39 | CCOC(=O)N1CCN(C(=O)CNC(=O)C23CC4CC(CC(C4)C2)C3)CC1 | 21.3
40 | C=CC1CN2CCC1CC2[C@@H](OC(=O)c1ccc(OC)cc1)c1ccnc2ccccc12 (some centres unmarked) | -37.3
41 | CSc1nnc(C2CCCN2)n1C.Cl (centres unmarked) | 3.72
42 | Cc1cccc(C(=O)NCCC(=O)Nc2ccc(F)c([N+](=O)[O-])c2)c1 | -20.7
43 | O=C(CC1CCCCC1)NCc1nc(-c2ccccc2)no1 | 8.22
44 | Cc1cc(C)c(C#N)c(SCc2cn3ccccc3n2)n1 | -28.9
45 | Cc1oc2c(C)c(O)ccc2c(=O)c1-c1ccc2ccccc2n1 | 26.2
46 | CCOC(=O)N1CCC(NC(=O)Cn2cc3c(n2)CCC(C)C3)CC1 (centres unmarked) | 7.39

Row | Compound | hERG current change (%, negative = inhibition) at 10uM [%]
47 | O=c1oc2ccccc2n1CCCCCn1c(=O)oc2ccccc21 | -36
48 | CCOC(=O)C1=C(C)Nc2nnnn2C1c1c[nH]c2ccccc12 (centres unmarked) | -5.75
49 | O=C(O)Cc1c(C(=O)O)nnn1-c1cccc(C(F)(F)F)c1 | 19.1
50 | CC(CCc1ccccc1)NC(=O)C(=O)NCCO (centres unmarked) | 4.98
51 | CCC(C(=O)NC1CCCC1)N(C(=O)Cn1nnc(-c2ccc(C)o2)n1)c1cccc(OC)c1 (centres unmarked) | 5.54
52 | CN(Cc1ccccc1)C(=O)c1[nH]cnc1C(=O)N[C@@H](Cc1ccccc1)C(=O)OC(C)(C)C | -3.51
53 | CCc1cc2c(CN3CCN(CC)CC3)cc(=O)oc2cc1O | -8.81
54 | CCNC(=S)N(CCc1ccc(S(N)(=O)=O)cc1)C1CC(=O)N(c2ccccc2)C1=O (centres unmarked) | -3.93
55 | c1ccc2c(c1)Cn1nnnc1-2 | -5.83
56 | CC(C)NC(=O)/C(C#N)=C/c1ccc(N(C)C)o1 | 4.56
57 | CCCCS(=O)(=O)CC(COc1ccccc1)OC(=O)c1ccccc1 (centres unmarked) | -0.141
58 | C=CCSC1=N/C(=C\c2cccnc2)C(=O)N1c1ccc(OC)cc1 | 12.7
59 | O=C(NCCCN1CCOCC1)c1ccc(NC(=O)C2COc3ccccc3O2)cc1 (centres unmarked) | -33.1
60 | CC1CCCC(NC(=O)c2cc(S(=O)(=O)N3CCOCC3)ccc2F)C1C (centres unmarked) | -5.64
61 | O=C1N=NC(=O)N1c1ccccc1 | 7.9
62 | Cc1c(NS(=O)(=O)N2CCCCC2)c(=O)n(-c2ccccc2)n1C | 13.4
63 | O=C(CCl)N=c1sccn1Cc1ccc(Cl)cc1Cl | 51.5
64 | COC(=O)c1ccc(NC(=O)c2ccc3nccnc3c2)cc1 | 10.1
65 | Cc1ccc(-c2cc(C(=O)Nc3cccnc3)c3ccccc3n2)s1 | -6.86
66 | CCOc1cc(/C=C\c2nc(O)c([N+](=O)[O-])c(=O)[nH]2)ccc1OC(C)C | 24.5
67 | CCC(OC(=O)c1nsc(Cl)c1Cl)C(=O)NCCOC (centres unmarked) | 25.1
68 | COC(=O)c1ccc(NC(=O)CCN2CCOCC2)cc1 | 5.24
69 | COc1ccc(CNCC(=O)Nc2cccc(S(N)(=O)=O)c2)cc1.O=C(O)C(=O)O | 6.09

Row | Compound | hERG current change (%, negative = inhibition) at 10uM [%]
70 | CCc1nnc(NC(=O)C2=CCN(S(=O)(=O)c3ccccc3)CC2)s1 | 8.06
71 | COc1ccccc1N(CC(O)COc1ccc(C)cc1)S(=O)(=O)c1ccccc1 (centres unmarked) | 6.08
72 | O=C(c1ccco1)N1CCN(C2=NS(=O)(=O)c3ccccc32)CC1 | -3.13
73 | CN1CCCC(OC(=O)COc2ccc(Br)cc2)C1.Cl (centres unmarked) | -12.8
74 | COCCNC(=O)C(C)OC(=O)c1cc2occc2n1C (centres unmarked) | 0.269
75 | COc1ccccc1C(=O)Nc1ccc2c(c1)C(=O)NC2=O | 9.85
76 | COc1cc(-c2nc(CN3CCN(c4ncccn4)CC3)c(C)o2)ccc1F | -9.65
77 | Cn1cc(Cl)c(/C=C(\C#N)S(=O)(=O)c2ccccc2)n1 | 5.78
78 | Cc1ccc(OCC(=O)NNC(=O)c2cc3ccccc3o2)cc1C | 9.83
79 | CC(C)c1onc(C(=O)Nc2sc3c(c2C#N)CCC3)c1[N+](=O)[O-] | 4.59
80 | O=C(Nc1ccccc1F)c1cc(-c2ccco2)nc2ccccc12 | 16.6
81 | O=c1c2ccccc2nc(-c2ccc(F)cc2)n1NCc1ccccc1O | -9.98
82 | O=C(CN1C(=O)COc2ccccc21)Nc1ccccc1F | 11.8
83 | COc1ccc(/C=N/Nc2nnc(-c3ncc[nH]3)c3ccccc23)cc1 | -8.36
84 | CCCCOC(=O)Nc1ccc(S(=O)(=O)Nc2ccc([N+](=O)[O-])cc2)cc1 | 9.83
85 | Cc1ccc(-n2nc3c(=O)n(CC(=O)NCc4ccc(C)o4)nc(C)c3c2C)cc1 | 13.1
86 | O=C(/C=C/c1cccc(Cl)c1)N1CCC(Cc2ccccc2)CC1 | -12.5
87 | CCN(CCS(=O)(=O)c1ccc(Cl)cc1)C(=O)Nc1ccc(Cl)cc1 | -38.9
88 | CCCCn1c(=O)[nH]c(=O)c2c1nc(-c1ccc(CC)c([N+](=O)[O-])c1)n2C | 10.8
89 | COc1ccc(S(=O)(=O)NC(C(C)C)C(C)C)cc1OC | -5.38
